The supplement of paper PMC10126150
Sequences with one replicate were seen in a single cluster, so their values are uncertain.

Test system: ATP
Assay: switch fluorescence ratio, 500 uM ATP over buffer (Cy3 cluster intensity, sum of 5 cycles each) (fold (ratio)); higher = stronger signal-on switching upon ATP binding; sequences stand for … in TCGTCGGCAGCGTCAGATGTGTATAAGAGACAGTTTTTTTTTTTTTTTTTTTTTTTTT…TC
Conditions: aptamer strand: ATP DNA aptamer (quencher-CACCTGGGGGAGTATTGCGGAGGAAGG + anchor), 100 nM annealed; ATP concentration: 500 uM; one replicate
Method in brief: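 Between each of five buffer/ATP cycles, the flow-cell was stripped with NaOH and re-annealed. Each cycle imaged Cy3-labelled switching-strand clusters, annealed to 100 nM quencher-labelled ATP aptamer on a modified Illumina MiSeq flow-cell, first in selection buffer and then after 15 min with 500 uM ATP at 22 °C. The fluorescence ratio is summed target-cycle over summed buffer-cycle Cy3 intensity per cluster, averaged per switch-domain sequence, with clusters outside 100-1000 RFU excluded.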
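Note: ATP exposure 15 min at 22 °C before imaging.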

Sequence	switch fluorescence ratio
GTGGCAACCA	1
TCTGGGTAGG	0.997
AGATCTGCAG	0.971
CGTCGCGCTG	1.07
TGTGGCCCGA	0.97
ATCCCTGGGC	1.05
CGTACCCGC	1
GCTTCCAGTG	1.15
TGTATTTGTA	0.995
AACTTCCGGC	1.76
GGATGTCATC	1
CGGACCGGCT	1.01
AATTTTCGCG	0.943
ATTAAAGATA	1.04
CACTGTCGTT	1.02
GTGTGACTCT	1.03
TATACAGGCA	1.02
ATAGGGACCA	1.06
TTGTCACAG	0.976
CAGATGGGTG	1.06
ACGATAGAAG	1.07
GACGTCTTGC	1.04
ATACTCGGC	1.08
GGTGTGATCG	0.96
GTGTGAAAAT	0.965

Sequence	switch fluorescence ratio
TTCCCCCCAT	1.17
TTGGTGTGAA	1.05
CGGGCTTCA	1
ACTCGGATCA	0.965
AGCAGGTATA	0.993
GGAAACATAA	0.987
GCCTGGATGG	0.996
CATAGTGGAT	1.02
TCGGGATACC	1.03
TGCAGACATT	0.988
ATGCTGTTGA	1.01
ATAGTGATAG	1.07
ATGCCATTGG	0.968
GCACATTTAT	1.03
AGCATTTGTG	1
GAATTACGCA	1.14
AGCGGTACGG	1.1
GCAACTCCCG	2.74
GTCATTCTAC	0.994
ATCGATTCCG	1.03
AGCGGAACCA	0.97
CGGTCCCAGC	1.01
TGTTCGTGAT	1.6
CCTTCTCGTA	1.07
AAAGGTGAG	1.04

Sequence	switch fluorescence ratio
GTATGCTACG	0.931
GCCCGCCGAC	2.04
GAGTAGCTCT	1
ATTTCCTTAC	1.53
TTGCAGCCTA	1.54
AGGAGTCGGG	1.01
CCTTACCTAC	2.11
ATATGATTTA	0.953
ATTTCTCTGG	1
ATATATGAAG	1.04
GGATTGATAC	1.1
GGTTGCGACC	0.957
GGTCAAGCCT	1.05
GAGTGCCTT	1.01
CGGTACTTGT	0.987
CAGAAGGAGA	0.952
GCTGCAATTG	1.23
TCAATTTTTG	0.982
CGATTTTAT	1
ATACAACAAA	1.02
AGTAACGATC	1.02
AGGAGACGCC	1.03
AGGGCCCTGA	0.974
GCGGGTGATT	1.04
CCATGAGAGA	1

Sequence	switch fluorescence ratio
TGGGGATCAA	1.02
AGCTGGGGCG	1.02
GGCAGGTGGA	1.02
ATAGAGATAA	0.982
CGCTAGGAAG	0.983
TTTCGTTCGG	0.992
CCAGGGTCCA	1.07
TTCGTTGGGA	0.993
GGCAGGGTCA	0.959
TGGGCGCCCT	1.01
CCCGGGCTGC	1.15
GCCTATCCAT	0.974
ATTCATCCTC	1.05
TTGTTTAGAA	0.973
TCACCGGATC	1.09
TTAGCTCACT	1.02
ACAGAGATAT	0.994
TCGTATTAC	1.36
CACTGGTGCT	1.16
CCTCATATTT	1.08
GCGTAGTACC	1.04
ATTGTGGATT	1.04
GTCAATCTGT	1.04
ACGCGGAATC	1.02
GTCAGGACA	1.02

Sequence	switch fluorescence ratio
TATGACCTGG	0.9
GTCGGGCGGA	0.988
CAGGATTTCC	0.979
CGGCCAGTGG	1.08
TCTGTTAAC	1.01
CACTAGCGCA	1.02
GCTTTTCAAC	1.02
TGACTACATC	1.09
GATCCGGGCA	1.03
TCTCTATGTC	1.02
AGGATGCGT	1.03
TACAATACAG	1.13
TCAAAAAAAA	0.998
GGCCGCAGTC	2.15
CCACGGAGT	1
GATTCCTACG	3.31
AGTCGGGAAT	0.985
CCATGCGCTG	1.25
TCTAGCCCCC	1.06
GCGAGTTTGG	1.02
ATAGGTGGTA	0.98
AATGAGGTCT	0.987
TTCTAGATGG	0.999
GGCCGTATTC	0.985
TAATGGGGTA	1.01

Sequence	switch fluorescence ratio
GTCTCAGAAA	1.01
TAACATACTT	1.3
ACATTATAA	1.01
GCGGGATTCC	1.02
TGAGGTTCAT	1.01
AGGTTCGTTA	0.964
GGTTGGGACG	1.02
TATTTTCCAA	1.04
CGGATTGTT	1.04
TCGAGGTGGA	0.945
TCATCGCCTT	1.1
TGCTAGTATA	0.917
ATGAGAGATG	0.981
CAGTCGCACT	1.17
TGTTAGTTAG	1.02
TCTGGCTTC	1.22
GTGAGACGGG	0.978
CGGAAGTACA	1.13
TAGATCGGTC	1
GATATTGGTA	1.03
AGCTGATGGA	0.992
CGTCCGAGAA	1.41
ATTTCACGGT	1.01
TAGGTGGGCG	1.03
ATTTCAAGGT	1

Sequence	switch fluorescence ratio
GAGGGTAGAA	0.971
TGGCAATAGA	1.04
CTCAATGGGA	2.19
AAGAACTAAT	1.03
TAAAGCTGAG	1.07
TATTATTTGC	1
TGCGACAAGA	1.38
AGAACTTACG	1.21
GTGTGCGGCG	0.94
GCAAATTTTG	1
TACGGATTTG	1.01
GCATCGCCGT	1
CGGGCAGCTA	1.08
GACGGGCACT	1.05
AGGCCTTTGT	0.993
TTTCACGGTC	0.985
GGCCCTTTTT	1.06
CTATTAATAA	1.11
GTAGTCTCAT	0.964
GCATGCCGAA	0.986
GAGGGTAAGT	0.985
GAACGGCTGG	0.954
TAAGTGGTAT	0.948
CTCGAGAAAA	1.03
GTTTTGAGCT	1.02

Sequence	switch fluorescence ratio
CCGTATTCGA	1.09
CACTACCAAC	1.25
GAGCCCGGTG	2.84
GATATTTCCA	0.981
GAGGCCCAGC	1
GCTCACGTGA	1
GAGCGGTGTG	0.999
GGGGGCTTAA	0.998
GGCCTACCTT	1.07
CGGCGTCGTT	1.04
GGTCGCCCTC	1.01
CGCCTATATC	1.41
CATAGTTACT	1.08
CGTACCAGAT	1
CATCGCGTTT	0.997
GCCACGAGTC	1.02
ACTGTGGTGC	1.03
TACGGACTCA	1.34
AGTCAGACAG	0.98
TTACCCCATA	1.06
TGCTACTGCT	1
CTGGAAGGGC	1.06
TGTATTATCC	0.995
TAAACGTAAT	1.22
GCGACTACCG	0.959
